B1: BCAR1 peptide 629-644 (Breast cancer anti-estrogen resistance protein 1), 16-mer library wild type / YES SH3 (YES1 SH3 domain, residues 90-152) (parent)
chain 1: TSSIQSRPLPSPPKFT
chain 2: TGGVTIFVALYDYEARTTEDLSFKKGERFQIINNTEGDWWEARSIATGKNGYIPSNYVAPADS
B2: CBL peptide 540-555 (E3 ubiquitin-protein ligase CBL), 16-mer library wild type / YES SH3 (YES1 SH3 domain, residues 90-152) (parent)
chain 1: RDLPPPPPPDRPYSVG
chain 2: B1 chain 2
B3: BCAR1 peptide 627-642 (Breast cancer anti-estrogen resistance protein 1), 16-mer library wild type / YES SH3 (YES1 SH3 domain, residues 90-152) (parent)
chain 1: DKTSSIQSRPLPSPPK
chain 2: B1 chain 2
B4: CBL peptide 538-553 (E3 ubiquitin-protein ligase CBL), 16-mer library wild type / YES SH3 (YES1 SH3 domain, residues 90-152) (parent)
chain 1: TLRDLPPPPPPDRPYS
chain 2: B1 chain 2

Variants of: B1
Experiment: proteomic peptide phage display deep mutational scan (ProP-PD DMS): M13 P8 16-mer library selected against immobilised GST-tagged bait for four days (rounds), NGS of the eluted pools per day and pseudo-replica
Details: with YES SH3 (YES1 SH3 domain, residues 90-152); bait immobilised on MaxiSorp plates (10 µg), library pre-cleared on GST, 2 h binding at 4 °C, five washes; one round per day, days 1-4; value from days 2 and 3; keep out of graded; scale: average fractional NGS count over selection days 2 and 3

Screen value, by site and new letter:
chain 1 P13: G 0.000405
chain 1 S11: K 0.000864 | N 0.000246 | I 0.000138
chain 1 I4: E 0.000192 | P 0.00083 | M 2.1e-05 | Q 0.000112
chain 1 P8: Q 4.51e-05 | N 6.15e-05 | G 8.77e-05 | H 4e-05 | S 6e-05 | I 0.000256
chain 1 K14: I 0.00345 | T 0.00281 | L 0.00279 | Y 0.00118 | G 0.000578 | H 0.00346 | W 0.000402
chain 1 L9: N 0 | K 8.17e-06
chain 1 T1: E 5.93e-05 | P 0 | V 0.000586
chain 1 F15: G 0.000171 | N 5.84e-05 | L 0.000133 | H 8.83e-05 | P 0.00069 | V 0.000176 | I 0.000305 | M 0.00233
chain 1 S6: D 0.000247 | F 2.52e-05
chain 1 P12: I 4.26e-05 | V 5.53e-05 | N 8.85e-05 | E 0.000119 | D 9.43e-06 | Q 0.00334
chain 1 S3: M 0.000163 | L 0.00166 | I 0.00355
chain 1 R7: H 0.000407 | Y 2.97e-05 | A 0.000207 | W 0.000412 | T 0.000476 | P 0
chain 1 Q5: F 3.7e-05 | H 0.000639
chain 1 S2: E 0.000199 | K 0

Variants of: B2
Experiment: as above
Details: with YES SH3 (YES1 SH3 domain, residues 90-152); bait immobilised on MaxiSorp plates (10 µg), library pre-cleared on GST, 2 h binding at 4 °C, five washes; one round per day, days 1-4; value from days 2 and 3; keep out of graded; scale: average fractional NGS count over selection days 2 and 3

Screen value, by site and new letter:
chain 1 D2: L 6.04e-05 | T 1.05e-05
chain 1 D10: R 1.63e-05
chain 1 L3: D 4.03e-05 | H 0 | R 2.75e-05 | Y 3.77e-05
chain 1 P4: D 2.85e-05 | N 4.39e-05 | R 3.48e-05 | S 6.3e-05 | W 0
chain 1 P5: E 4.8e-05
chain 1 P6: D 6.74e-05 | G 8.17e-06 | H 2.27e-05 | I 0 | S 6.53e-05 | T 1.74e-05
chain 1 P7: S 1.15e-05
chain 1 P8: H 1.69e-05 | Q 4.82e-05 | R 6.78e-05
chain 1 P9: H 4.85e-05 | N 1.81e-05
chain 1 P12: E 6.36e-05 | R 1.87e-05 | T 3.4e-05
chain 1 R1: D 3.74e-05 | G 2.27e-05 | S 3.6e-05 | W 1.53e-05 | Y 7.56e-06
chain 1 R11: N 4.27e-05 | W 2.07e-05
chain 1 S14: K 2.32e-05 | W 0
chain 1 V15: D 1.41e-05
chain 1 Y13: D 1.01e-05 | M 8.8e-05 | T 4.73e-05

Variants of: B3
Experiment: as above
Details: with YES SH3 (YES1 SH3 domain, residues 90-152); bait immobilised on MaxiSorp plates (10 µg), library pre-cleared on GST, 2 h binding at 4 °C, five washes; one round per day, days 1-4; value from days 2 and 3; keep out of graded; scale: average fractional NGS count over selection days 2 and 3

Screen value, by site and new letter:
chain 1 I6: A 0.000117 | D 0.000255 | E 4.52e-05 | F 0.000384 | G 2.68e-05 | H 3.02e-05 | L 0.000527 | M 0.000326 | N 0.000337 | P 4.47e-05 | Q 0.000104 | S 3.96e-05 | T 0.00102 | V 0.000109 | W 9.94e-05 | Y 0.000104
chain 1 K2: A 0.000246 | D 0.00115 | F 2.91e-05 | G 0.000637 | H 0.000112 | I 0 | L 0.000107 | M 0.00208 | N 0.000395 | P 0.00285 | Q 0 | R 0.000443 | S 0.000197 | V 0.000276 | W 0.000884 | Y 6.55e-05
chain 1 K16: A 0.00513 | D 0.000335 | F 0.000257 | G 0.000127 | H 0.00232 | I 0.0012 | L 0.000447 | M 0.000291 | N 0.000201 | P 0.000355 | Q 0.000527 | R 9.53e-05 | S 0.00238 | T 0.000564 | V 0.00239 | W 0.00245 | Y 0.000555
chain 1 L11: A 0 | I 0.000151 | M 0.000292 | Q 0 | R 0 | T 1.47e-05 | V 2.1e-05 | Y 0
chain 1 P10: A 7.34e-05 | D 0.000127 | E 0.00139 | F 1.11e-05 | G 0.000167 | H 0.000338 | I 0.000192 | K 0.000173 | L 0.000113 | M 9.54e-05 | N 0.000608 | Q 0.000156 | R 4.16e-05 | S 0.000423 | T 0.00136 | V 0.000766 | W 7.38e-05 | Y 0.00167
chain 1 P12: A 0 | E 8.57e-06 | F 0 | N 0 | Q 0 | V 0
chain 1 P14: A 0.000719 | D 0.000125 | F 0.000238 | G 4.18e-05 | H 0.00219 | I 0.000174 | K 3.48e-05 | L 0.000953 | M 0.00105 | Q 0.000368 | R 3.2e-05 | S 0.000485 | T 6.67e-05 | V 4.27e-05 | W 0.000315 | Y 5.98e-05
chain 1 P15: A 0.00104 | D 9.59e-05 | E 0 | F 0.000215 | G 0.000213 | H 9.73e-05 | I 0.000186 | L 0.000856 | M 0.000379 | N 0 | Q 2.17e-05 | R 0.000562 | S 0.000123 | T 0.000142 | V 0.000431 | W 0.000725 | Y 0.00111
chain 1 Q7: A 0.000141 | D 0.000285 | E 5.02e-05 | F 8.91e-05 | G 2.49e-05 | H 3.04e-05 | I 8.26e-05 | K 8.33e-05 | L 0.000603 | M 0.00032 | N 0.00037 | P 0.000179 | R 0 | S 5.25e-05 | T 0.000294 | V 0.000181 | W 0.000164 | Y 0
chain 1 R9: A 0.0003 | D 1.05e-05 | E 9.37e-05 | G 1.28e-05 | H 0.00169 | I 0.000887 | K 0 | L 0.000193 | M 0.000769 | N 0.000169 | Q 2.09e-05 | S 0.000624 | T 0.000495 | V 0.00123 | W 8.04e-05 | Y 2.2e-05
chain 1 S4: A 0.00993 | D 0.000464 | E 0.000568 | F 5.12e-05 | G 0.00308 | H 3.83e-05 | I 0.00137 | K 3.27e-05 | L 0.00047 | M 0.000501 | N 5.72e-05 | P 9.18e-05 | Q 4.46e-05 | R 4.43e-05 | V 0.000316 | W 0.000108 | Y 3.94e-05
chain 1 S5: A 0.00108 | D 0.000229 | E 0.000154 | F 1.79e-05 | G 0.000507 | H 0.00215 | K 7.33e-05 | L 4.23e-05 | M 0.000106 | N 5.45e-05 | P 0.000193 | Q 0.000132 | R 8.28e-05 | T 0.000244 | V 0.000182 | W 0.000171 | Y 0.000636
chain 1 S8: A 0.000955 | D 2.65e-05 | E 0.00106 | F 0.000348 | G 0.000536 | H 0.00267 | I 0 | L 0.000598 | M 0.000166 | N 0.000152 | P 3.66e-05 | Q 0.000529 | R 0.000207 | T 0.00252 | V 0.00011 | W 3.9e-05 | Y 0
chain 1 S13: A 0.000178 | D 0.000107 | E 1.39e-05 | F 7.9e-05 | G 1.66e-05 | H 4.93e-05 | I 0.000242 | K 0 | L 8.91e-05 | M 0.00055 | N 8.06e-05 | P 0.000604 | Q 0.00017 | R 6.91e-05 | T 0.0002 | V 0.000205 | W 2.81e-05 | Y 3.84e-05
chain 1 T3: A 0.000673 | D 0.000304 | E 0.000411 | F 2.69e-05 | G 0.000642 | H 0.000245 | I 0 | K 2.45e-05 | L 0.000697 | M 7.42e-05 | N 0.000164 | P 0.000477 | Q 0.000123 | R 0 | V 0.000108 | W 0.000148 | Y 0

Variants of: B4
Experiment: as above
Details: with YES SH3 (YES1 SH3 domain, residues 90-152); bait immobilised on MaxiSorp plates (10 µg), library pre-cleared on GST, 2 h binding at 4 °C, five washes; one round per day, days 1-4; value from days 2 and 3; keep out of graded; scale: average fractional NGS count over selection days 2 and 3

Screen value of substitutions, site by site:
chain 1 D4: E 8.57e-06 | G 2.72e-05 | W 4.74e-05
chain 1 D12: F 5.86e-05

Reference: article PMC12102759
